# The list shows a part of the results. For part of these data: At the low end of the ranking the order means little. For part of these data: Measured with an extract: partners may take part in the binding.
# Target: PU.1 (IVT) (UniProt P17947)
# Assay: protein-binding microarray (PBM)
# Conditions: 20 mM HEPES pH 7.9, 100 mM NaCl, 1 mM DTT, 0.2 mg/mL BSA, 0.02% Triton X-100, 2% milk, 0.4 mg/mL salmon testes DNA; 1 h; temperature not stated; high values mean tight binding; double strand, one strand shown; sequences stand for … in GCCTAGCAC…GTGCTAGGTCTTGATTCGCTTGACGCTGCTG
row,Sequence,binding signal [z-score]
1,AGCAGGAGGAAGTGAGCTCC,3.78
2,GAAAGGAGGATGTACTGTGA,1.39
3,GGTAGAGAGAAGTACTGTGG,1.15
4,TATAAGAGGAACTGAAAGGA,3.64
5,TTGCTGAGGAAGTGGATGAT,2.68
6,GATACGAGGAAGTCCTCTGT,2.67
7,TGATTGAGGAAGTGGCTGGG,5.54
8,CGAAAGGAGAAGTGCTAAAC,4.02
9,AAAATGGGGAAGTGGGGCAT,6.98
10,TAAAAGAGGAAGTGGTCAGA,8.17
11,AGGCAGAGGAAGTGGAATCT,3.38
12,ACAAAAGGGAACTGTGCCCC,2.55
13,GGTTTGAGGAAGTGGATCAT,6.52
14,AGAAAGAGGAAGTCCAGTAC,7.98
15,GGGAAGGGGAAGTGGAGAGG,4.97
16,ATTTCTGGGAAGTACTGTGA,2.12
17,TGCAGGTGGAAGTACTGTGG,1.43
18,TAAAGGAGGAAGTGTCAGCA,5.3
19,GATCAGAGGAAGTCCTCTGT,2.58
20,AAAAAGAGGAAGTCAGTTTG,8.4

row,Sequence,binding signal [z-score]
1,TTTTTGAGGAACTGTGGGTG,4.02
2,CCGAAGGGGAAGTGGTCAGA,5.04
3,GGGGAGAGGAAGTACTGTGA,4.7
4,AGAATGGGGAAGTGGAAATC,6.86
5,GGAAGGCAGAAGTACTGTGA,1.51
6,AAAATGGGGAAGTGACCTTA,7.47
7,AAAAGTAGGAAGTGATTCAA,5.17
8,GGTAAGAGGAAGTCCTCTGT,5.67
9,AAAAAGGGGAAGTCAAATTG,8.09
10,CTGAACAGGAAGTGGGTGGA,4.48
11,GAGAAAGGGAAGTGGCTCAG,4.51
12,TCAAGAAGGAAGTGCCAAAT,3.31
13,ACAAAAAGGAACTTTGCCCC,2.53
14,GGAAAGGGGAAGTGACCTCC,7.51
15,ACAAAGAGGAAGTCCCCAAA,6.47
16,AGAAAGAGGAAGACTAGTGT,3.78
17,CAAGGGAGGAAGTGGAAAAA,3.39
18,AGGCAGGGGAAGTGGCCGTC,3.22
19,TGAAAGAGGAGGTGCAACCA,-0.411
20,CAAAAAGGGAAGTGGATACT,6.35

# Target: PU.1 (endogenous, THP-1 nuclear extract) (UniProt P17947)
# Assay: nuclear extract protein-binding microarray (nextPBM)
# Conditions: 20 mM HEPES pH 7.9, 100 mM NaCl, 1 mM DTT, 0.2 mg/mL BSA, 0.02% Triton X-100, 2% milk, 0.4 mg/mL salmon testes DNA; 1 h; temperature not stated; high values mean tight binding; double strand, one strand shown; sequences stand for … in GCCTAGCAC…GTGCTAGGTCTTGATTCGCTTGACGCTGCTG
row,Sequence,binding signal [z-score]
1,AGCAGGAGGAAGTGAGCTCC,4.43
2,GAAAGGAGGATGTACTGTGA,1.49
3,GGTAGAGAGAAGTACTGTGG,1.08
4,TATAAGAGGAACTGAAAGGA,4.29
5,TTGCTGAGGAAGTGGATGAT,2.72
6,GATACGAGGAAGTCCTCTGT,2.74
7,TGATTGAGGAAGTGGCTGGG,6.3
8,CGAAAGGAGAAGTGCTAAAC,4.63
9,AAAATGGGGAAGTGGGGCAT,7.23
10,TAAAAGAGGAAGTGGTCAGA,7.14
11,AGGCAGAGGAAGTGGAATCT,3.06
12,ACAAAAGGGAACTGTGCCCC,2.69
13,GGTTTGAGGAAGTGGATCAT,6.49
14,AGAAAGAGGAAGTCCAGTAC,7.3
15,GGGAAGGGGAAGTGGAGAGG,5.52
16,ATTTCTGGGAAGTACTGTGA,1.81
17,TGCAGGTGGAAGTACTGTGG,1.43
18,TAAAGGAGGAAGTGTCAGCA,5.59
19,GATCAGAGGAAGTCCTCTGT,2.59
20,AAAAAGAGGAAGTCAGTTTG,7.5

row,Sequence,binding signal [z-score]
1,TTTTTGAGGAACTGTGGGTG,4.12
2,CCGAAGGGGAAGTGGTCAGA,5.33
3,GGGGAGAGGAAGTACTGTGA,4.41
4,AGAATGGGGAAGTGGAAATC,6.84
5,GGAAGGCAGAAGTACTGTGA,1.69
6,AAAATGGGGAAGTGACCTTA,7.38
7,AAAAGTAGGAAGTGATTCAA,4.84
8,GGTAAGAGGAAGTCCTCTGT,6.26
9,AAAAAGGGGAAGTCAAATTG,7.53
10,CTGAACAGGAAGTGGGTGGA,4.84
11,GAGAAAGGGAAGTGGCTCAG,4.93
12,TCAAGAAGGAAGTGCCAAAT,3.17
13,ACAAAAAGGAACTTTGCCCC,1.78
14,GGAAAGGGGAAGTGACCTCC,7.52
15,ACAAAGAGGAAGTCCCCAAA,6.79
16,AGAAAGAGGAAGACTAGTGT,3.73
17,CAAGGGAGGAAGTGGAAAAA,3.38
18,AGGCAGGGGAAGTGGCCGTC,2.77
19,TGAAAGAGGAGGTGCAACCA,-0.0464
20,CAAAAAGGGAAGTGGATACT,6.85

# Target: T1, FLI1 (endogenous, THP-1 nuclear extract) (UniProt Q01543)
# T1 sequence: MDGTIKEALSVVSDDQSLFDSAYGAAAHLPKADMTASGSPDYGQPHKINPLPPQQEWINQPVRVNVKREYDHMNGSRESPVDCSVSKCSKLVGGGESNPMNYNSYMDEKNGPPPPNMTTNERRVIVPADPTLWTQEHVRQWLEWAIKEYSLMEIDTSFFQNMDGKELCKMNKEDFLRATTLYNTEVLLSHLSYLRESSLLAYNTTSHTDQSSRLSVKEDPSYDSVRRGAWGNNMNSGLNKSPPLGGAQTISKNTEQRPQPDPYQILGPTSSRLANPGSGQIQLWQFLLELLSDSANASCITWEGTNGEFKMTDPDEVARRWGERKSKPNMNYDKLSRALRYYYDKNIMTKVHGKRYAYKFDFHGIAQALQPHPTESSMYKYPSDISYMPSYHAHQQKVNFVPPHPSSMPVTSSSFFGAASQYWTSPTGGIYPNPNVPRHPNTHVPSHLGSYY
# Assay: as above
# Conditions: 20 mM HEPES pH 7.9, 100 mM NaCl, 1 mM DTT, 0.2 mg/mL BSA, 0.02% Triton X-100, 2% milk, 0.4 mg/mL salmon testes DNA; 1 h; temperature not stated; high values mean tight binding; double strand, one strand shown; sequences stand for … in GCCTAGCAC…GTGCTAGGTCTTGATTCGCTTGACGCTGCTG
row,Sequence,binding signal [z-score]
1,AGCAGGAGGAAGTGAGCTCC,2.61
2,GAAAGGAGGATGTACTGTGA,1.03
3,GGTAGAGAGAAGTACTGTGG,-0.907
4,TATAAGAGGAACTGAAAGGA,1.67
5,TTGCTGAGGAAGTGGATGAT,2.12
6,GATACGAGGAAGTCCTCTGT,1.35
7,TGATTGAGGAAGTGGCTGGG,3
8,CGAAAGGAGAAGTGCTAAAC,0.966
9,AAAATGGGGAAGTGGGGCAT,2.55
10,TAAAAGAGGAAGTGGTCAGA,4.4
11,AGGCAGAGGAAGTGGAATCT,2.63
12,ACAAAAGGGAACTGTGCCCC,0.373
13,GGTTTGAGGAAGTGGATCAT,3.18
14,AGAAAGAGGAAGTCCAGTAC,4.42
15,GGGAAGGGGAAGTGGAGAGG,2.49
16,ATTTCTGGGAAGTACTGTGA,0.598
17,TGCAGGTGGAAGTACTGTGG,0.75
18,TAAAGGAGGAAGTGTCAGCA,2.56
19,GATCAGAGGAAGTCCTCTGT,2.09
20,AAAAAGAGGAAGTCAGTTTG,4.35

row,Sequence,binding signal [z-score]
1,TTTTTGAGGAACTGTGGGTG,0.816
2,CCGAAGGGGAAGTGGTCAGA,2.36
3,GGGGAGAGGAAGTACTGTGA,2.44
4,AGAATGGGGAAGTGGAAATC,3.09
5,GGAAGGCAGAAGTACTGTGA,0.346
6,AAAATGGGGAAGTGACCTTA,4.1
7,AAAAGTAGGAAGTGATTCAA,2.42
8,GGTAAGAGGAAGTCCTCTGT,2.82
9,AAAAAGGGGAAGTCAAATTG,3.52
10,CTGAACAGGAAGTGGGTGGA,5.22
11,GAGAAAGGGAAGTGGCTCAG,2.29
12,TCAAGAAGGAAGTGCCAAAT,2.04
13,ACAAAAAGGAACTTTGCCCC,0.606
14,GGAAAGGGGAAGTGACCTCC,3.5
15,ACAAAGAGGAAGTCCCCAAA,3.12
16,AGAAAGAGGAAGACTAGTGT,1.46
17,CAAGGGAGGAAGTGGAAAAA,2.94
18,AGGCAGGGGAAGTGGCCGTC,2.15
19,TGAAAGAGGAGGTGCAACCA,-0.232
20,CAAAAAGGGAAGTGGATACT,2.77
